Laboratory results: PMC4336329 (PLoS ONE, 2015)
Out of some 310,000 compounds screened, about 2,200 (0.71%) showed an effect of 50% or more. The effect is printed as a negative number. This is one part of the list.

Target: human ether-à-go-go-related gene (hERG) potassium channel (human, UniProt Q12809)
Test: primary screen, population patch clamp on CHO cells stably expressing hERG

Sequence of human ether-à-go-go-related gene (hERG) potassium channel (Q12809 whole entry, looked up): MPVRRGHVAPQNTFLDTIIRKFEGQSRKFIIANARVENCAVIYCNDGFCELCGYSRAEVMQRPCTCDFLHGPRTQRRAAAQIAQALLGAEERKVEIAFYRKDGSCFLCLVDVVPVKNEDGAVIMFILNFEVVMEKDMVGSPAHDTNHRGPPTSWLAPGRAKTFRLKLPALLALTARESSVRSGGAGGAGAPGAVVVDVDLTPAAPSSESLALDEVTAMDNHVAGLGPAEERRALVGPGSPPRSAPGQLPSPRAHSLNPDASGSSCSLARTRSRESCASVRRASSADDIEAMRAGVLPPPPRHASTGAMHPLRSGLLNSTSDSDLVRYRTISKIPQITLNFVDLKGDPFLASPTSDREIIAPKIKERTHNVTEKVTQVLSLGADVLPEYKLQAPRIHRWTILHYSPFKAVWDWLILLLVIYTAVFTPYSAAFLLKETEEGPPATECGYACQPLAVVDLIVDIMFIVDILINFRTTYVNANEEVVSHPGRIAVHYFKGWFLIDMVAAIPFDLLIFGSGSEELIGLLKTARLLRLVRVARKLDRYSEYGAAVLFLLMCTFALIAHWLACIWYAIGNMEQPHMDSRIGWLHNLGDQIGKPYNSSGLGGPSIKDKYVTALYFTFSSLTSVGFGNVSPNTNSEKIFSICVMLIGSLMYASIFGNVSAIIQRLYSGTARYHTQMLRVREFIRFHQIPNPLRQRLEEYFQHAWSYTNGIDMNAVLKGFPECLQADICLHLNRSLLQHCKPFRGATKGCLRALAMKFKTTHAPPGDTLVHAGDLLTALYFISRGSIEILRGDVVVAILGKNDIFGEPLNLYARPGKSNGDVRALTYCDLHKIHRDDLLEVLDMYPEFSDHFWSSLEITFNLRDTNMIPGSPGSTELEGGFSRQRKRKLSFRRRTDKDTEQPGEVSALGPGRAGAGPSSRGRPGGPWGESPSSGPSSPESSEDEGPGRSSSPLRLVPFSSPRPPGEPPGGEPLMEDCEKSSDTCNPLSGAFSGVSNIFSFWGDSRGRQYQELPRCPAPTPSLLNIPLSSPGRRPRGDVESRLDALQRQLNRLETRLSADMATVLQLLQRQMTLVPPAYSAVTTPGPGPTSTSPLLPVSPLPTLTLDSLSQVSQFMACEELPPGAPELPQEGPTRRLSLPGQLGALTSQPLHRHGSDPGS

Row | Compound | hERG current change (%, negative = inhibition) at 1uM
1 | Cc1ccccc1Nc1nc(N)nc(COC(=O)C2CCCCC2)n1 | 7.57%
2 | CCCNC(=S)N1CCC(C(=O)c2ccc(Cl)cc2)CC1 | 0.396%
3 | CCn1c(=O)c(C(=O)Nc2ccc(C)cc2C)c(O)c2ccccc21 | 9.46%
4 | Cc1ccc(/C=N/NC(=O)NC23CC4CC(CC(C4)C2)C3)o1 | 11.7%
5 | CC(C)n1c(-c2ccco2)csc1=Nc1cccnc1 | 8.43%
6 | Cc1ccc(C)c(S(=O)(=O)Nc2cc3c4c(c2)CC(=O)N4CCC3)c1 | 0.497%
7 | CC(=O)c1c(C(C)=O)c(C)n(NC(=O)c2ccccc2O)c1C | 3.31%
8 | Oc1ccc(-c2ccccc2)cc1CN1CCCCCC1 | 2.54%
9 | CCOc1c(CNCCN2CCOCC2)cccc1OC.Cl | 1.27%
10 | O=C(COC(=O)c1ccccc1Br)NCCC1=CCCCC1 | 12.7%
11 | CC(=O)N1CCSc2ccc(S(=O)(=O)NCCc3ccc(Cl)cc3)cc21 | 19.7%
12 | C#CCNC(=O)C1=C[C@@H](c2ccccc2)C[C@@H](OCc2ccc(CO)cc2)O1 | 5.86%
13 | CCN(Cc1nc2ccccc2c(=O)[nH]1)Cc1cc(=O)oc2cc(C)c(C)cc12 | -25.2%
14 | Cc1nc2ccccc2c2oc(C(=O)NCCCN3CCCC(C)C3)cc12 (stereo not drawn) | 3.47%
15 | CC(=O)c1cccc(OCC(O)CNCC2COc3ccccc3O2)c1.O=C(O)C(=O)O (stereo not drawn) | 5.96%
16 | COC(=O)c1ccccc1NC(=O)CC#N | 7.85%
17 | COc1ccc(N2CCN(CCNC(=O)Nc3ccc(C)c(Cl)c3)CC2)cc1 | 12%
18 | Cc1cc(C)c(NC(=O)Cn2c(=O)n(Cc3ccco3)c(=O)c3ccccc32)c(C)c1 | 15%
19 | COc1ccc(/C=C/C(=O)Nc2cc(C)nn2-c2nc3ccccc3n2Cc2cccc([N+](=O)[O-])c2)cc1 | 7.2%

Row | Compound | hERG current change (%, negative = inhibition) at 1uM
20 | COc1cc(C(=O)N2c3ccccc3CC2C)cc(OC)c1OC (stereo not drawn) | 12.8%
21 | COc1ccc(Nc2cc(C)c3cc([N+](=O)[O-])ccc3n2)cc1 | 9%
22 | Cc1nn(-c2ccccc2)c(C)c1[N+](=O)[O-] | 0.921%
23 | COC(=O)c1scc(C)c1NC(=O)Nc1ccccc1 | 1.55%
24 | O=C(COC(=O)c1cc(Cl)ccc1O)NCCC1=CCCCC1 | 11.8%
25 | Cc1ccc(C(=O)OCC(=O)Nc2ccccc2C(F)(F)F)cc1S(=O)(=O)N1CCOCC1 | 6.76%
26 | CCCCP(=O)(CCCC)Cc1ccccc1O | 11.6%
27 | COCCCNc1nc2c(-c3ccc(Cl)cc3)nnn2c2ccccc12 | -4.36%
28 | N#CCc1c(C#N)c(N)nc(N2CCN(C=O)CC2)c1C#N | -7.03%
29 | Cc1csc2c(N3CCN(C(=O)Nc4ccc(Cl)c(Cl)c4)CC3)ncnc12 | 10.9%
30 | O=C(Nc1cccc2nsnc12)c1cccnc1Cl | -14.2%
31 | Cc1onc(-c2c(Cl)cccc2Cl)c1/C(N)=N/OC(=O)C(C)(C)C | 18.2%
32 | CCOC(=O)C1=C(COC(=O)/C=C/c2ccc(O)c(OC)c2)NC(=O)NC1C (stereo not drawn) | 9.97%
33 | CCOC(=O)Cc1csc(NC(=O)c2c(C)noc2C)n1 | 9.73%
34 | O=C(NN1C(=O)C2C3C=CC(C4CC34)C2C1=O)c1cccc(Cl)c1 (stereo not drawn) | 8.39%
35 | CCC(=O)N1CCc2cc(S(=O)(=O)Nc3ccccc3C)ccc21 | 16.6%
36 | Nc1ccc(-c2cc3ccccc3oc2=O)cc1 | 14%
37 | COc1cccc(C(=O)NCCC2=CCCCC2)c1OC | 7.33%
38 | CC(C)(C)c1ccc(OCCCN2CCCC2)cc1 | -10.1%

Row | Compound | hERG current change (%, negative = inhibition) at 1uM
39 | CN(C)CCOC(=O)Cc1ccc(Cl)cc1.Cl | -5.82%
40 | COc1ccc(-n2nc(C(=O)NCC(=O)N3CCC4(CC3)OCCO4)c3ccccc3c2=O)cc1OC | 7.46%
41 | CCCc1cc(C(=O)Nc2ccc(C#N)cc2)no1 | 7.15%
42 | COc1ccc(/C=N/NC(=O)c2[nH]c(C)c(C(=O)N/N=C/c3ccc(OC)cc3)c2C)cc1 | 0.18%
43 | COC(=O)C(Cc1cnc(Cl)s1)(C(=O)OC)c1ccc(C(F)(F)F)cc1[N+](=O)[O-] | 11.7%
44 | CC(C)c1nc(SCC(=O)Nc2ccc(N3CCOCC3)cc2)c2ccccc2n1 | 2.09%
45 | N#CCCN(C(=O)COC(=O)CNC(=O)c1cccs1)c1ccc(F)cc1 | -18.2%
46 | COc1ccc2cc(C(=O)C3CCCN(C(=O)C4=NN(C)C(=O)CC4)C3)ccc2c1 (stereo not drawn) | 1.78%
47 | CCN(CC(=O)Nc1ccc2c(c1)OCCO2)C(=O)c1cccc(S(=O)(=O)N2CCOCC2)c1 | 11.3%
48 | CCC(=O)Nc1nnc(CSCc2ccccc2)s1 | 5.46%
49 | Nc1c(Cl)cc(-c2csc(N3CCCC3c3nc4cc(Cl)c(Cl)cc4n3CCCO)n2)cc1Cl (stereo not drawn) | 9.5%
50 | COc1cccc(OCc2cc(C(=O)NC3CCOCC3)no2)c1 | 17.9%
51 | NS(=O)(=O)c1cccc(NC(=O)CCCNC(=O)c2ccc(Cl)cc2)c1 | 7.93%
52 | O=c1oc2ccccc2c(Nc2ccc3ccccc3c2)c1[N+](=O)[O-] | 5.46%
53 | CCOC(=O)C1CCN(C(=O)/C=C/c2cc(OC)c(OC)c(OC)c2)CC1 | 12.1%
54 | Cc1c(NC2=C(Cl)C(=O)N(c3ccccc3Cl)C2=O)c(=O)n(-c2ccccc2)n1C | 4.96%
55 | COc1ccc(NC(=O)COC(=O)CC2CCCCC2)cc1 | 5.46%
56 | CC(C)(C)c1ccccc1NC(=O)Cn1cnc2cc([N+](=O)[O-])ccc2c1=O | 2.29%
57 | O=C(Nc1ccc(N2CCOCC2)cc1N1CCOCC1)c1ccco1 | 9.41%
